Positions count from the first letter of the chain named.
Legend:
[1] = biological target: T1, human TIGIT stably expressed on cells (Jurkat; 293T) (human, UniProt Q495A1 22-244); assay: flow cytometry, whole cell binding assay on human TIGIT expressing cells (upper panel)
T1 construct: the expression vector's insert is not described further; also called h-TIGIT; human TIGIT transfected Jurkat cells
T1 sequence: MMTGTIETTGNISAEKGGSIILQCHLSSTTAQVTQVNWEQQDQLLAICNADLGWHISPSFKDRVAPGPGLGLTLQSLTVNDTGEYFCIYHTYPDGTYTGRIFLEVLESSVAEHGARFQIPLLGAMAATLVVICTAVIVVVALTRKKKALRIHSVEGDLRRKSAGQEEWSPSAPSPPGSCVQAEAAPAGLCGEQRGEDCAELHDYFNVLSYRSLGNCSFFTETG

[2] = biological target: T1, human TIGIT stably expressed on cells …; assay: cell-based or functional assay
[3] = biological target: T1, human TIGIT stably expressed on cells …; assay: flow cytometry (CytoFlex), whole cell binding on h-TIGIT cells; representative of three experiments
[4] = biological target: T1, human TIGIT stably expressed on cells …; assay: cell-based or functional assay; remark: listed apart in the source
[5] = biological target: T1, human TIGIT stably expressed on cells …; assay: cell-based or functional assay; remark: listed apart in the source
[6] = biological target: T1, human TIGIT stably expressed on cells …; assay: flow cytometry, whole cell binding on Jurkat cells stably expressing human TIGIT; Alexa Fluor 488 anti-human IgG Fc secondary
Excerpt: FIGS. 1A-1C depict whole cell binding of representative VHH bivalent antibodies to human TIGIT determined by flowcytometry assays. […] Y axis represents Mean Fluorescence Intensity of AlexaFlour 488. X axis represents antibody concentrations in nanomolar. […] FIG. 1C is a schematic of the structure of a TIGIT VHH bivalent antibody.
Jurkat cells stably expressing human TIGIT and NFAT reporter gene were established. Specifically, Jurkat cells were transfected with human TIGIT expression vector by electroporation, and cells stably expressing human TIGIT were selected by 1 μg/ml puromycin during cell culture. Representative antibody clones were incubated at different concentrations with h-TIGIT stably expressing Jurkat cells (0.2×10⁶/ml) in 100 μl/well in 96-well plate in FACS buffer (PBS with 1.5% FBS) for 30 min. After washing, Alexaflour 488 conjugated anti-human IgG Fc secondary antibody (Alexa Fluor® 488 AffiniPure Goat Anti-Human IgG, Fcγ fragment specific, Jackson labs, 1:500 dilution) was added and incubated for 30 min. After washing, mean fluorescence intensity was measured using CytoFlex (Beckman Coulter) by gating live cell population. Binding affinity was calculated using GraphPad Prism.

B1: 2A3-LT-Fc (2A3 ML_DT VHH fused to wild type human IgG1 Fc) (Fc fusion)
chain: QVQLVESGGGVVQPGRSLRLSCAASGGSFSSYPMGWFRQAPGKERESVAAISSDLRFTYYADSVKGRFTISRDNSKNTLYLQMNSLRAEDTAVYYCAARTSGVGYYSRAQWYDYWGQGTLVTVSS[… human IgG1 Fc …]
notes: also called 2A3-LT-Fc wt; 2A3-LT-Fc wild type
EC50 (read off the curve) [1]: ~0.5 nM
EC50 (nM), TIGIT blockade NFAT luciferase reporter assay, Average [2]: 0.57 nM
EC50 (nM), TIGIT blockade NFAT luciferase reporter assay, Exp 1 [2]: 0.58 nM
EC50 (nM), TIGIT blockade NFAT luciferase reporter assay, Exp 2 [2]: 0.687 nM
EC50 (nM), TIGIT blockade NFAT luciferase reporter assay, Exp 3 [2]: 0.45 nM
EC50 (read off the curve) [3]: ~0.3 nM
EC50 (read off the curve); NFAT reporter activity (RLU), human TIGIT blockade reporter assay (lower panel) [4]: ~1 nM

B2: 2B7 bivalent VHH antibody (VHH with human CH2 and CH3) (Fc fusion)
chain: QVQLVESGGGLVQAGGSLRLACAASGRTFSSYPMGWFRQGPGKERESVAAISSDGRFTYYAASVKGRFTISKDNAKSAAFLQMNSLKPEDTAVYYCAARDSGSGYYSRAQWYDYWGQGTQVTVSS[… human IgG1 Fc …]
notes: domain: CH2 and CH3; Expressed in ExpiCHO, Protein A purified
EC50 (read off the curve); NFAT luciferase reporter (RLU), h-TIGIT/NFAT Jurkat cells with PVR Raji cells and SEE [5]: ~1 nM

B3: 13H11 bivalent VHH antibody (VHH with human CH2 and CH3) (Fc fusion)
chain: B2 chain with A21S, R27L, S31M, P33A
notes: domain: CH2 and CH3
EC50 (read off the curve) [6]: ~0.2 nM

B4: 15A5 bivalent VHH antibody (VHH with human CH2 and CH3) (Fc fusion)
chain: QVQLVESGGGLVQAGGSLRLSCAASERTFSSFAMGWFRQAPGKEREVVAAIDPSGRYIYYKDSVKGRFTMSRDNAKSTVYLQMNSLKPDDTARYYCAARIRGEGYYTRSSFYHYWGQGTQVTVSS[… human IgG1 Fc …]
notes: domain: CH2 and CH3
EC50 (read off the curve) [6]: ~0.06 nM

Source: patent US20230037911A1 (SHANGHAI HENLIUS BIOTECH, published 2023)
